Out of some 48,000 compounds screened, about 550 (1.1%) were called active. Roughly 4% stayed inconclusive and do not appear here. Cut-off read from the data, not from the text of the source: active = potency below about 15 µM; inconclusive = mostly about 16 µM to 33 µM; inactive = weaker than that. Some of the results follow.
target: Lysosomal acid glucosylceramidase (Homo sapiens) (UniProt P04062); experiment: Glucocerebrosidase; conditions: purified enzyme, resorufin glucoside fluorescence (screen aimed at inhibitors), 20 min; series mostly up to 77 µM;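 note: the screen sought inhibitors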
Method in brief: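 Wild-type enzyme at 0.2 nM final in 50mM citric acid/KH2PO4, 10mM sodium taurocholate, 0.01% tween-20, pH 5.9, with resorufin beta-D-glucopyranoside at 30 uM final. Compounds titrated, 20 min at RT, red fluorescence read; AC50 from titration.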
Potency is the fitted concentration of half-maximal effect.

UniProt P04062, sequence (P04062 whole entry, looked up): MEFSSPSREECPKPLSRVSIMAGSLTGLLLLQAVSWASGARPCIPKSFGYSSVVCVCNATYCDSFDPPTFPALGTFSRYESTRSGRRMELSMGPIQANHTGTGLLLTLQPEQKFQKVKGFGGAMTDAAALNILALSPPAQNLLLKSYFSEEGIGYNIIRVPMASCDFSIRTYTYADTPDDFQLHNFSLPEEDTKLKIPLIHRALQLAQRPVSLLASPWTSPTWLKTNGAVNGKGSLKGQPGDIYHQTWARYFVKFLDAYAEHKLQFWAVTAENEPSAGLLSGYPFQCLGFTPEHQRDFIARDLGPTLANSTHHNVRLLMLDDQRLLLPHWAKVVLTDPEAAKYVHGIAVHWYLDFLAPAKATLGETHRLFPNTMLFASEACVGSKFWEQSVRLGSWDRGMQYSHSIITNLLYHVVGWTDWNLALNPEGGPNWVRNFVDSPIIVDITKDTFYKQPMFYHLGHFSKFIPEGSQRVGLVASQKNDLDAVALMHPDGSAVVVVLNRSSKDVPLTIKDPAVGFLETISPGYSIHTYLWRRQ

Potency, inactive:
CC1CCCCN1C(=O)Cn1nnc(-c2cccnc2)n1 (centres undefined) > 76.9 µM
CCCCN(C)CCNC(=O)c1ccc2c(c1)NC(=O)C(N1CCCCC1)S2 (centres undefined) > 76.9 µM
Nc1ccccc1NC(=O)c1ccccc1N > 76.9 µM
COc1ccc(C2C(C(=O)N3CCOCC3)c3ccccc3C(=O)N2c2ccc(OC)cc2)cc1 (centres undefined) > 76.9 µM
CC(C(=O)NCc1ccc2c(c1)OCO2)N(c1ccccc1)S(C)(=O)=O (centres undefined) > 76.9 µM
CCOC(=O)C1CCN(Cc2cn[nH]c2-c2ccc(C)cc2)CC1 > 76.9 µM
O=C(CN1C(=O)c2ccccc2S1(=O)=O)NCCC1=CCCCC1 > 76.9 µM
O=S(=O)(NCC1CCCO1)c1ccc2c(c1)OCCO2 (centres undefined) > 76.9 µM
CCOC(=O)N1CCN(C(=O)Cn2ccc3ccccc3c2=O)CC1 > 76.9 µM
COc1ccc(OC)c(NC(=O)C2C3C=CC(C3)C2C(=O)NCc2ccccn2)c1 (centres undefined) > 76.9 µM
COC(=O)CN(c1ccc2c(c1)OCCO2)S(=O)(=O)c1ccccc1 > 76.9 µM
CCN(CC(=O)Nc1ccc2c(c1)OCCO2)c1ccc(S(=O)(=O)N2CCOCC2)cn1 > 76.9 µM
CC(NC(=O)C1CCC1)c1ccccc1 (centres undefined) > 76.9 µM
CC1Cc2ccccc2N1C(=O)c1cccnc1 (centres undefined) > 76.9 µM
CC[N+](CC)(CCO)CCCN1C(=O)C2CC=C(Cl)CC2C1=O (centres undefined) > 76.9 µM
CCCCCNC(=O)CCCCn1c(=O)[nH]c2cc(OCC)c(OCC)cc2c1=O > 76.9 µM
COc1ccc(CC(=O)NC2CCN(Cc3nnnn3C(C)(C)C)CC2)cc1OC > 76.9 µM
O=C(CN1C(=O)NC2NC(=O)NC21)NC1CCCCC1 (centres undefined) > 76.9 µM
Cc1occc1C(=O)Nc1ccc2c(c1)CCC2 > 76.9 µM
COc1ccc(Cl)cc1NC(=O)COc1cccc(-n2cnnn2)c1 > 76.9 µM
COc1ccccc1NC(=O)N1CCCC1C(=O)NCc1ccccc1 (centres undefined) > 76.9 µM
O=C(Nc1ccccc1N1CCN(C(=O)c2ccc(Cl)cc2)CC1)c1ccc2c(c1)OCO2 > 76.9 µM
COc1cc2c(cc1OC)C(c1ccc(N(C)C)cc1)CC(=O)N2 (centres undefined) > 76.9 µM
O=C(NCc1ccco1)C1CCCN(S(=O)(=O)c2cccc3nonc23)C1 (centres undefined) > 76.9 µM
CCn1cc(Br)c(C(=O)NC(C)c2ccccc2)n1 (centres undefined) > 76.9 µM
CC1(C)N=C(c2ccc(Cl)cc2Cl)C(=O)N1 > 76.9 µM
CCC(=O)NCCCOc1ccccc1 > 76.9 µM
NC(=O)CSCc1c(Cl)cccc1Cl > 76.9 µM
Brc1ccc(C2=Nn3c(nnc3-c3ccncc3)SC2)cc1 > 76.9 µM
CCOC(=O)c1c(NC(=O)CSc2n[nH]c(-c3ccco3)n2)sc(C)c1C > 76.9 µM
CS(=O)(=O)N(CC(=O)NC1CCCC1)c1ccc2c(c1)OCCO2 > 76.9 µM
COc1cc2[nH]c(=O)n(CCC(=O)NC3CCCC3)c(=O)c2cc1OC > 76.9 µM
O=C1N(CC(=O)N2CCc3ccccc32)CCN1Cc1ccccc1Cl > 76.9 µM
CCC1CCCCN1CCCn1c(=S)[nH]c2ccccc2c1=O (centres undefined) > 76.9 µM
COc1ccc(-c2noc(CSc3nnc(-c4ccncc4)n3-c3ccc(F)cc3)n2)cc1OC > 76.9 µM
Cc1cc(C(F)(F)F)nc(SCC(=O)Nc2ccccc2)n1 > 76.9 µM
CCn1c(C(C)NC(=O)Cc2ccccc2)nc2ccccc21 (centres undefined) > 76.9 µM
c1cncc(-c2nc(N3CCCCCC3)c3ccccc3n2)c1 > 76.9 µM
COc1ccc(S(=O)(=O)Nc2cc(C)c(O)cc2C(C)C)cc1 > 76.9 µM
CCSC1(SCC)N=C(N)C2(C#N)C(c3ccccc3)NC(C)=C(C)C12C#N (centres undefined) > 76.9 µM
CN(C)/C=C1/Nc2ccccc2C1=O > 76.9 µM
Cc1cc(C)nc(SCc2nnc(SCC(=O)N3CCOCC3)o2)n1 > 76.9 µM
Cc1c(C(=O)OCc2ccccc2)nnn1-c1nonc1N > 76.9 µM
COc1cc2[nH]c(=S)n(CCCN3CCOCC3)c(=O)c2cc1OC > 76.9 µM
CCOC(=O)N1CCN(Cc2nc(N)nc(Nc3ccc(Oc4ccccc4)cc3)n2)CC1
COc1ccc2[nH]cc(C(=O)CN3CCCC(C)C3)c2c1 (centres undefined) > 76.9 µM
COC(=O)c1[nH]c2ccc(C)cc2c1NC(=O)C1=COCCO1 > 76.9 µM
O=C(NC1CCCC1)C1c2ccccc2C(=O)N1C1CCCCC1 (centres undefined) > 76.9 µM
COCCn1c(SCc2ccc(C(=O)OC)o2)nc2cc(Cl)ccc2c1=O > 76.9 µM
CCN(C(=O)COC(=O)c1c(-c2ccccc2)noc1C)C1CCS(=O)(=O)C1 (centres undefined) > 76.9 µM
CN(C)c1ccc(CNC23CN4CN(CN(C4)C2)C3)cc1 > 76.9 µM
CCOC(=O)c1cc(C#N)c(SCC(=O)c2cc(C#N)c(SC)nc2C)nc1C > 76.9 µM
O=C(CCC(=O)N(CC(=O)NC1CCCCC1)Cc1ccco1)Nc1nccs1 > 76.9 µM
Cc1ccc2c(c1)c(C)c(C)n2CC(O)Cn1nnc2ccccc21 (centres undefined) > 76.9 µM
COc1ccc(-c2nnn(CC(=O)N(CC(=O)NCCC(C)C)c3ccccc3)n2)cc1OC > 76.9 µM
Cc1cc(C)nc(SC2CCOC2=O)n1 (centres undefined) > 76.9 µM
CCn1c(SCC(=O)Nc2ccc(C(C)=O)cc2)nc2ccccc21 > 76.9 µM
Cc1nc2ccc(NC(=O)Cn3cnc4c3c(=O)n(C)c(=O)n4C)cc2s1 > 76.9 µM
COC(=O)CCN1CCC(C(N)=O)CC1 > 76.9 µM
